Laboratory results: PubChem BioAssay AID686970 (National Center for Advancing Translational Sciences (NCATS), 2013)
Among all 360,000 compounds or so, about 6,000 (1.7%) were called active. The shares of active, inactive and inconclusive entries below differ from those in the screen. Calls follow the shape of the dose curve; as a rule, active = well fitted cell-killing curve with a large enough effect; inconclusive = small, poorly fitted or top-dose-only effect, or effect the other way; inactive = flat fitted curve, though single readings scatter. Potencies of inconclusive entries are left out as doubtful fits.

test: qHTS for induction of synthetic lethality in tumor cells producing 2HG: qHTS for the HT-1080-NT fibrosarcoma cell line; details: HT-1080-NT fibrosarcoma viability, CellTiter-Glo ATP luminescence, 48 h; activity, negative = less viability: at 46.1 µM (top of the series) unless noted;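 also: NT is the 2HG producing partner of a matched IDH1 knockdown line; nearly all actives have a fitted effect of over 55% in size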;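 as to activity, negative = less viability: 0% = DMSO-treated cells and -100% = media-only wells without cells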
Outline: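 Read-out is CellTiter-Glo luminescence after 10 minutes at room temperature, following 48 hours' compound treatment of HT-1080-NT cells (750 cells/well, RPMI, 5% FBS, 37 degrees C).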
Potency is read from the fitted curve at half-maximal effect; tags tell the direction and shape of the fitted curve.

| Structure (SMILES) | Potency | activity, negative = less viability |
| --- | --- | --- |
| CC(=O)O[C@H]1C[C@@]2(O)[C@@H](OC(=O)c3ccccc3)C3[C@@](C)([C@@H](O)C[C@H]4OC[C@@]34OC(C)=O)[C@@H](O)[C@H](OC(C)=O)C(=C1C)C2(C)C (stereo not given in full) | inconclusive [cytotoxic, single point] |  |
| COc1ccc(-c2csc(NC(=O)c3ccccc3NS(=O)(=O)c3ccc(C)cc3)n2)cc1 | inconclusive [cytotoxic, single point] |  |
| O=C1C=CC(=O)N1CCNc1ncc(C(F)(F)F)cc1Cl | inconclusive [cytotoxic, single point] |  |
| O=C(Nc1ccc2c(c1)OCO2)c1cc(-c2ccncc2)nc2ccccc12 | active: 18.4 µM |  |
| CCOC(=O)c1cc(OC(C)=O)c2ccc(OC)c(OC)c2c1 | inconclusive [rising, full curve, poor fit] |  |
| COc1cccc(NC(=O)Nc2ccc3c(c2)OCO3)c1 |  | inactive: 0.0733% |
| COc1ccc(S(=O)(=O)Nc2ccc(-n3cnnn3)cc2)cc1Br |  | inactive: -0.0599% |
| O=c1cc(C(F)(F)F)nc(SC/C=C/c2ccccc2)[nH]1 | inconclusive [cytotoxic, single point] |  |
| COc1ccccc1/C=N/Nc1nc(C)cc(=O)[nH]1 |  | inactive: 4.22% |
| C=CCNC(=O)c1cccc(C(F)(F)F)c1 |  | inactive: 2.69% |
| COc1ccc(-c2cc(-c3c(O)c(OC)c4occc4c3OC)[nH]n2)cc1 | inconclusive [cytotoxic, single point] |  |
| COc1cc(CC(=O)OCC(=O)Nc2sccc2C(N)=O)cc(OC)c1OC |  | inactive: 0% |
| COc1cc(C(=O)NCC(=O)N/N=C/c2cccs2)cc(OC)c1OC |  | inactive: 14.6% |
| CC(C)N(C(=O)[C@H]1C[C@H](CC(=O)NCC23CC4CC(CC(C4)C2)C3)C(=O)N2CCc3c([nH]c4ccc(Cl)cc34)[C@]12C)C(C)C | inconclusive [cytotoxic, single point] |  |
| COc1ccc(CNC(=O)O[C@@H]2C[C@H]3C(=O)N(c4ccccc4)C(=O)[C@H]3[C@@]3(CN(S(=O)(=O)c4ccc(C)cc4)C[C@H]3C)[C@@H]2O)cc1OC |  | inactive: -7.74% |
| N#C/C(=C/C1=C(N2CCOCC2)C(=C/c2cccc([N+](=O)[O-])c2)/CC1)C(=O)Nc1ccccc1F |  | inactive: 0% |
| CC1(C(=O)NCc2ccc(F)c(F)c2)Cc2c(-c3cccc(C(N)=O)c3)ccnc2O1 (stereo not given) | active: 25.9 µM |  |
| CCOc1ccc(/C=N/Nc2cc(N3CCOCC3)ncn2)c(O)c1 | inconclusive [cytotoxic, full curve] |  |
| C=CCn1c(C)cc(C2=NNC(=NCC)SC2)c1C | inconclusive [cytotoxic, single point] |  |
| CC(C)(C)c1ccc(C(=O)Nc2ccccc2NC(=O)c2ccco2)cc1 | inconclusive [cytotoxic, single point] |  |
| OC[C@@H]1CN(Cc2ccc(F)cc2)C[C@H](n2cnc3c(N4CCN(c5ccccc5)CC4)ncnc32)O1 | inconclusive [cytotoxic, single point] |  |
| O=S(=O)(c1cccc(F)c1)N1CCc2sccc2C1c1ccc(OC(F)(F)F)cc1 (stereo not given) | inconclusive [cytotoxic, single point] |  |
| COc1ccc(-c2cn3cccnc3n2)cc1NC(=O)C(C)Oc1ccccc1 (stereo not given) | inconclusive [cytotoxic, single point] |  |
| CCCn1c(=S)[nH]c2cc(C(=O)N3CCCC(C(=O)OCC)C3)ccc2c1=O (stereo not given) | inconclusive [cytotoxic, single point] |  |

| Structure (SMILES) | Potency | activity, negative = less viability |
| --- | --- | --- |
| COCCNc1nc(NCc2cccc(OC)c2)c2sccc2n1 |  | inactive: -1.18% |
| CCCSc1cc(N2CCCC2)nc(-c2ccccc2)n1 |  | inactive: 9.76% |
| O=c1c(-c2ccnn2-c2cccc(Cl)c2)cnc2n1CCS2 |  | inactive: 14.9% |
| CC1(C(=O)NCCc2c[nH]c3ccccc23)CCN1Cc1ccccc1OC(F)F (stereo not given) | active: 23.1 µM |  |
| O=C(CSc1ccccc1)Nc1nc2ccccc2[nH]1 | active: 11.6 µM |  |
| Clc1ccsc1-c1csc(-c2cccnc2)n1 | inconclusive [cytotoxic, single point] |  |
| CC(C)=NNC(=O)c1c(O)c2ccccc2[nH]c1=O | inconclusive [cytotoxic, single point] |  |
| COC(=O)c1cn(C(=O)c2cccc(C)c2)c2ccccc12 |  | inactive: 2.11% |
| Brc1ccc2[nH]c3c(NCc4ccccn4)ncnc3c2c1 | inconclusive [cytotoxic, single point] |  |
| CCN=C1S/C(=C/c2ccc(-c3ccc(F)cc3)o2)C(=O)N1CC |  | inconclusive: 33.5% |
| COc1ccc(CN2C(=O)c3ccccc3C2=O)cc1C(=O)Nc1ccc(C)cc1C |  | inactive: 9.2% |
| CCOC(=O)c1c(C)[nH]c(C(=O)N/N=C/c2cccc(OC)c2)c1C | inconclusive [cytotoxic, partial curve] |  |
| O=C(c1ccccc1)C(CCC(CN1CCOCC1)C(=O)c1ccccc1)CN1CCOCC1 (stereo not given) | active: 10.3 µM |  |
| CCN1CCN(CCCNC(=O)c2cc3c(s2)-c2ccccc2OC3)CC1 | inconclusive [cytotoxic, single point] |  |
| Cc1c(Cl)ccc2c(C(O)CBr)cc(-c3ccccc3)nc12 (stereo not given) | inconclusive [cytotoxic, single point] |  |
| COC(=O)c1c(-c2ccc(Br)cc2)noc1N | inconclusive [cytotoxic, single point] |  |
| O=c1[nH]c(SCc2ccccc2Cl)nc2[nH]ncc12 | inconclusive [cytotoxic, partial curve] |  |
| O=C1CC(=C(c2ccccc2)c2ccccc2)C(=O)N1CCCCN1CCN(c2cccc(Cl)c2)CC1 | inconclusive [cytotoxic, single point] |  |
| O=C(NNC(=S)NC1CCCCC1)c1ccccc1O | inconclusive [cytotoxic, single point] |  |
| CCOC(=O)c1ccc(NC2OC(=O)c3ccccc32)cc1 (stereo not given) |  | inactive: -1.05% |
| O=C(Nc1cccc2ccccc12)c1ccc([N+](=O)[O-])o1 | inconclusive [cytotoxic, partial curve] |  |
| S=C(Nc1ccc(Cl)cc1)NC1CC2CCCC(C1)N2C1CC1 (stereo not given) | inconclusive [cytotoxic, single point] |  |
| Cc1ccc(S(=O)(=O)NC(=O)C2(C)CCN2C(=O)C2CC2)cc1 (stereo not given) |  | inactive: 20.4% |
| Cc1ccc(CNC(=O)C2CC(c3ccccc3F)=NO2)cc1 (stereo not given) | inconclusive [cytotoxic, single point] |  |

| Structure (SMILES) | Potency | activity, negative = less viability |
| --- | --- | --- |
| O=C(Nc1ccccc1O)c1cc(S(=O)(=O)N2CCOCC2)c(Cl)cc1Cl |  | inconclusive: -34.2% [cytotoxic] |
| CC(=O)c1ccc(NC(=O)CN2C(=O)NC(C)(C3CCCCC3)C2=O)cc1 (stereo not given) |  | inactive: -1.61% |
| O=C(Nc1cccc(F)c1)N(Cc1ccc(Cl)cc1)CC(O)C(F)(F)F (stereo not given) | active: 20.6 µM |  |
| CCOC(=O)N1CCN(C(=O)c2cc(-c3ccc(OCC)cc3)nc3ccccc23)CC1 | active: 5.01 µM |  |
| O=C(NCc1ccccc1)Nc1nnc([C@@H]2C[C@H](O)[C@@H](CO)O2)s1 | inconclusive [rising, single point] |  |
| CN(Cc1ccccc1)C(c1ccnc2ccccc12)c1nnnn1-c1ccc2c(c1)OCCO2 (stereo not given) | inconclusive [cytotoxic, single point] |  |
| Cc1cc(C)nc(Sc2nc(C)nc3c2oc2ccccc23)n1 | inconclusive [cytotoxic, single point] |  |
| CCOC(=O)N(C)c1c(CC)nc2c(OCc3ccc(S(C)(=O)=O)cc3)cccn12 |  | inactive: 17.2% |
| O=C(COC(=O)CCc1ccccc1)Nc1ncc(Cl)cc1Cl |  | inactive: 0.552% |
| Cc1cccc(CNS(=O)(=O)c2ccc(-c3cnc(C4CC4)o3)cc2)c1 | inconclusive [cytotoxic, partial curve] |  |
| COc1cc(OC)cc(-c2c(-c3ccc(F)cc3)c3cc(-c4ccc5c(c4)OCCO5)ccc3n2C)c1 | inconclusive [rising, single point] |  |
| CC(C)NCCCCOc1ccc(Br)cc1Cl | inconclusive [cytotoxic, single point] |  |
| O=S1(=O)CCN(c2ccccc2CC(c2c[nH]c3ccccc23)c2c[nH]c3ccccc23)CC1 | inconclusive [cytotoxic, single point] |  |
| COc1ccc(OC)c(C2Nc3c(Cl)ccc(C(=O)O)c3C3C=CCC32)c1 (stereo not given) | inconclusive [cytotoxic, single point] |  |
| O=C(c1cccc(S(=O)(=O)N2CCOCC2)c1)N(CCc1ccccc1)Cc1ccccc1 |  | inactive: -1.98% |
| Cc1ccc(S(=O)(=O)SC/C=C/CSS(=O)(=O)c2ccc(C)cc2)cc1 | inconclusive [rising, partial curve] |  |
| NC(=O)c1cc2c(s1)-c1cc(Cl)ccc1SC2 | inconclusive [cytotoxic, single point] |  |
| COc1ccc(C(CC(=O)c2ccc(C)cc2)C(C#N)C#N)cc1OC (stereo not given) | active: 20.6 µM |  |
| COc1ccc(CNC(=O)CN2C(=O)NC3(CCCCCC3)C2=O)cc1 |  | inactive: 4.55% |
| O=C(NCc1ccccc1Cl)c1ccc2nnsc2c1 | inconclusive [cytotoxic, single point] |  |
| Cc1ccc(NC(=O)C2CCN(S(=O)(=O)c3cc([N+](=O)[O-])ccc3Cl)CC2)nc1 | inconclusive [cytotoxic, single point] |  |
| CC(C)(C)c1ccc(C(=O)NCCCN2CCN(CCCNC(=O)c3ccc(C(C)(C)C)cc3)CC2)cc1 | active: 18.4 µM |  |
